# Laboratory results published in the supplement of paper PMC8728848.
# Some of the results follow.
# B1: SGC, Q9M345 (protein)
# chain: QNLNFTYNGFHPPLTDISLQGLATVTPNGLLKLTNTSVQKTGHAFCTERIRFKDSQNGNVSSFSTTFVFAIHSQIPTLSGHGIAFVVAPTLGLPFALPSQYIGLFNISNNGNDTNHIFAVEFDTIQSSEFGDPNDNHVGIDLNGLRSANYSTAGYRDDHDKFQNLSLISRKRIQVWIDYDNRSHRIDVTVAPFDSDKPRKPLVSYVRDLSSILLEDMYVGFSSATGSVLSEHFLVGWSFRLNGEAPMLSLSKLPKLPRFEPRRIS
# Key:
# Test in all cases: glycan array binding signal (z-score within array); higher = stronger binding
# Conditions in all cases: glycan notation: IUPAC condensed, linker removed
# [1] = target: Neu5Ac(a2-3)Gal(b1-4)GlcNAc(b1-3)[Neu5Ac(a2-3)Gal(b1-4)GlcNAc(b1-6)]GalNAc
# How it was run: (§1)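 Columns mapping to the same glycan were averaged after glycan names were converted to IUPAC-condensed notation. The data come from 3228 arrays in the Consortium for Functional Glycomics database, limited to those with an available protein sequence. Binding is reported as a within-array Z-score averaged across arrays of one protein sequence and across linkers.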
# [2] = target: Neu5Ac(a2-3)Gal(b1-4)GlcNAc(b1-6)GalNAc
# How it was run: as §1
# [3] = target: Neu5Ac(a2-3)Gal(b1-4)GlcNAc(b1-6)[Gal(b1-3)]GalNAc
# How it was run: as §1
# [4] = target: Neu5Ac(a2-3)Gal(b1-4)GlcNAc(b1-6)[Neu5Ac(a2-3)Gal(b1-3)]GalNAc
# How it was run: as §1
# [5] = target: Neu5Ac(a2-3)Gal(b1-4)GlcNAc6S
# How it was run: as §1
# [6] = target: Neu5Ac(a2-3)Gal(b1-4)[Fuc(a1-3)]GlcNAc
# How it was run: as §1
# [7] = target: Neu5Ac(a2-3)Gal(b1-4)[Fuc(a1-3)]GlcNAc(b1-2)Man
# How it was run: as §1
# [8] = target: Neu5Ac(a2-3)Gal(b1-4)[Fuc(a1-3)]GlcNAc(b1-3)Gal
# How it was run: as §1
# [9] = target: Neu5Ac(a2-3)Gal(b1-4)[Fuc(a1-3)]GlcNAc(b1-3)Gal(b1-4)GlcNAc
# How it was run: as §1
# [10] = target: Neu5Ac(a2-3)Gal(b1-4)[Fuc(a1-3)]GlcNAc(b1-3)Gal(b1-4)[Fuc(a1-3)]GlcNAc(b1-3)Gal(b1-4)[Fuc(a1-3)]GlcNAc
# How it was run: as §1
# [11] = target: Neu5Ac(a2-3)Gal(b1-4)[Fuc(a1-3)]GlcNAc(b1-3)GalNAc
# How it was run: as §1
# [12] = target: Neu5Ac(a2-3)Gal(b1-4)[Fuc(a1-3)]GlcNAc(b1-6)[Gal(b1-3)]GalNAc
# How it was run: as §1
# [13] = target: Neu5Ac(a2-3)Gal(b1-4)[Fuc(a1-3)]GlcNAc(b1-6)[Neu5Ac(a2-3)Gal(b1-3)]GalNAc
# How it was run: as §1
# [14] = target: Neu5Ac(a2-3)Gal(b1-4)[Fuc(a1-3)]GlcNAc6S
# How it was run: as §1
# [15] = target: Neu5Ac(a2-3)Gal6S(b1-4)GlcNAc
# How it was run: as §1
# [16] = target: Neu5Ac(a2-3)Gal6S(b1-4)[Fuc(a1-3)]GlcNAc
# How it was run: as §1
# Neu5Ac(a2-3)GalNAc = target: Neu5Ac(a2-3)GalNAc
# How it was run: as §1
# [17] = target: Neu5Ac(a2-3)GalNAc(b1-4)GlcNAc
# How it was run: as §1
# [18] = target: Neu5Ac(a2-3)[GalNAc(b1-4)]Gal(b1-4)Glc
# How it was run: as §1
# [19] = target: Neu5Ac(a2-3)[GalNAc(b1-4)]Gal(b1-4)GlcNAc
# How it was run: as §1
# [20] = target: Neu5Ac(a2-3)[GalNAc(b1-4)]Gal(b1-4)GlcNAc(b1-3)GalNAc
# How it was run: as §1
# [21] = target: Neu5Ac(a2-3)[Neu5Ac(a2-6)]GalNAc
# How it was run: as §1
# Neu5Ac(a2-6)Gal = target: Neu5Ac(a2-6)Gal
# How it was run: as §1
# [22] = target: Neu5Ac(a2-6)Gal(b1-3)GlcNAc(b1-3)[Gal(b1-4)GlcNAc(b1-6)]Gal(b1-4)Glc
# How it was run: as §1
# Neu5Ac(a2-6)Gal(b1-4)Glc = target: Neu5Ac(a2-6)Gal(b1-4)Glc
# How it was run: as §1
# [23] = target: Neu5Ac(a2-6)Gal(b1-4)GlcNAc
# How it was run: as §1
# [24] = target: Neu5Ac(a2-6)Gal(b1-4)GlcNAc(b1-2)Man
# How it was run: as §1
# [25] = target: Neu5Ac(a2-6)Gal(b1-4)GlcNAc(b1-2)Man(a1-3)Man(b1-4)GlcNAc(b1-4)GlcNAc
# How it was run: as §1
# [26] = target: Neu5Ac(a2-6)Gal(b1-4)GlcNAc(b1-2)Man(a1-3)[Gal(b1-4)GlcNAc(b1-2)Man(a1-6)]Man(b1-4)GlcNAc(b1-4)GlcNAc
# How it was run: as §1
# [27] = target: Neu5Ac(a2-6)Gal(b1-4)GlcNAc(b1-2)Man(a1-3)[GlcNAc(b1-2)Man(a1-6)]Man(b1-4)GlcNAc(b1-4)GlcNAc
# How it was run: as §1
# [28] = target: Neu5Ac(a2-6)Gal(b1-4)GlcNAc(b1-2)Man(a1-3)[GlcNAc(b1-4)][Neu5Ac(a2-6)Gal(b1-4)GlcNAc(b1-2)Man(a1-6)]Man(b1-4)GlcNAc(b1-4)GlcNAc
# How it was run: as §1
# [29] = target: Neu5Ac(a2-6)Gal(b1-4)GlcNAc(b1-2)Man(a1-3)[Man(a1-6)]Man(b1-4)GlcNAc(b1-4)GlcNAc
# How it was run: as §1
# [30] = target: Neu5Ac(a2-6)Gal(b1-4)GlcNAc(b1-2)Man(a1-3)[Neu5Ac(a2-3)Gal(b1-4)GlcNAc(b1-2)Man(a1-6)]Man(b1-4)GlcNAc(b1-4)GlcNAc
# How it was run: as §1
# [31] = target: Neu5Ac(a2-6)Gal(b1-4)GlcNAc(b1-2)Man(a1-3)[Neu5Ac(a2-6)Gal(b1-4)GlcNAc(b1-2)Man(a1-6)]Man(b1-4)GlcNAc(b1-4)GlcNAc
# How it was run: as §1
# [32] = target: Neu5Ac(a2-6)Gal(b1-4)GlcNAc(b1-2)Man(a1-3)[Neu5Ac(a2-6)Gal(b1-4)GlcNAc(b1-2)Man(a1-6)]Man(b1-4)GlcNAc(b1-4)[Fuc(a1-6)]GlcNAc
# How it was run: as §1
# [33] = target: Neu5Ac(a2-6)Gal(b1-4)GlcNAc(b1-2)Man(a1-6)Man(b1-4)GlcNAc(b1-4)GlcNAc
# How it was run: as §1
# [34] = target: Neu5Ac(a2-6)Gal(b1-4)GlcNAc(b1-2)Man(a1-6)[Gal(b1-4)GlcNAc(b1-2)Man(a1-3)]Man(b1-4)GlcNAc(b1-4)GlcNAc
# How it was run: as §1
# [35] = target: Neu5Ac(a2-6)Gal(b1-4)GlcNAc(b1-2)Man(a1-6)[GlcNAc(b1-2)Man(a1-3)]Man(b1-4)GlcNAc(b1-4)GlcNAc
# How it was run: as §1
# [36] = target: Neu5Ac(a2-6)Gal(b1-4)GlcNAc(b1-2)Man(a1-6)[Man(a1-3)]Man(b1-4)GlcNAc(b1-4)GlcNAc
# How it was run: as §1
# [37] = target: Neu5Ac(a2-6)Gal(b1-4)GlcNAc(b1-2)[Neu5Ac(a2-6)Gal(b1-4)GlcNAc(b1-4)]Man(a1-3)[GlcNAc(b1-4)][Neu5Ac(a2-6)Gal(b1-4)GlcNAc(b1-2)[Neu5Ac(a2-6)Gal(b1-4)GlcNAc(b1-6)]Man(a1-6)]Man(b1-4)GlcNAc(b1-4)GlcNAc
# How it was run: as §1
# [38] = target: Neu5Ac(a2-6)Gal(b1-4)GlcNAc(b1-2)[Neu5Ac(a2-6)Gal(b1-4)GlcNAc(b1-4)]Man(a1-3)[GlcNAc(b1-4)][Neu5Ac(a2-6)Gal(b1-4)GlcNAc(b1-4)Man(a1-6)]Man(b1-4)GlcNAc(b1-4)GlcNAc
# How it was run: as §1
# [39] = target: Neu5Ac(a2-6)Gal(b1-4)GlcNAc(b1-2)[Neu5Ac(a2-6)Gal(b1-4)GlcNAc(b1-6)]Man(a1-6)[Neu5Ac(a2-6)Gal(b1-4)GlcNAc(b1-2)Man(a1-3)][GlcNAc(b1-4)]Man(b1-4)GlcNAc(b1-4)GlcNAc
# How it was run: as §1
# [40] = target: Neu5Ac(a2-6)Gal(b1-4)GlcNAc(b1-3)Gal(b1-3)GlcNAc
# How it was run: as §1
# [41] = target: Neu5Ac(a2-6)Gal(b1-4)GlcNAc(b1-3)Gal(b1-4)GlcNAc
# How it was run: as §1
# [42] = target: Neu5Ac(a2-6)Gal(b1-4)GlcNAc(b1-3)Gal(b1-4)GlcNAc(b1-2)Man(a1-3)[Neu5Ac(a2-6)Gal(b1-4)GlcNAc(b1-3)Gal(b1-4)GlcNAc(b1-2)Man(a1-6)]GalNAc
# How it was run: as §1
# [43] = target: Neu5Ac(a2-6)Gal(b1-4)GlcNAc(b1-3)Gal(b1-4)GlcNAc(b1-3)Gal(b1-4)GlcNAc
# How it was run: as §1
binder,measurement,setting,value
B1,glycan array binding signal (z-score),[1],-0.347
same,glycan array binding signal (z-score),[2],-0.413
same,glycan array binding signal (z-score),[3],-0.262
same,glycan array binding signal (z-score),[4],-0.387
same,glycan array binding signal (z-score),[5],-0.362
same,glycan array binding signal (z-score),[6],-0.393
same,glycan array binding signal (z-score),[7],-0.404
same,glycan array binding signal (z-score),[8],-0.394
same,glycan array binding signal (z-score),[9],-0.295
same,glycan array binding signal (z-score),[10],-0.454
same,glycan array binding signal (z-score),[11],-0.202
same,glycan array binding signal (z-score),[12],8.35
same,glycan array binding signal (z-score),[13],0.04
same,glycan array binding signal (z-score),[14],-0.416
same,glycan array binding signal (z-score),[15],-0.324
same,glycan array binding signal (z-score),[16],-0.398
same,glycan array binding signal (z-score),Neu5Ac(a2-3)GalNAc,-0.375
same,glycan array binding signal (z-score),[17],-0.361
same,glycan array binding signal (z-score),[18],0.004
same,glycan array binding signal (z-score),[19],-0.138
same,glycan array binding signal (z-score),[20],0.67
same,glycan array binding signal (z-score),[21],-0.398
same,glycan array binding signal (z-score),Neu5Ac(a2-6)Gal,-0.326
same,glycan array binding signal (z-score),[22],-0.251
same,glycan array binding signal (z-score),Neu5Ac(a2-6)Gal(b1-4)Glc,-0.356
same,glycan array binding signal (z-score),[23],-0.38
same,glycan array binding signal (z-score),[24],-0.397
same,glycan array binding signal (z-score),[25],-0.314
same,glycan array binding signal (z-score),[26],2.03
same,glycan array binding signal (z-score),[27],0.059
same,glycan array binding signal (z-score),[28],-0.44
same,glycan array binding signal (z-score),[29],-0.343
same,glycan array binding signal (z-score),[30],-0.344
same,glycan array binding signal (z-score),[31],-0.325
same,glycan array binding signal (z-score),[32],-0.338
same,glycan array binding signal (z-score),[33],-0.173
same,glycan array binding signal (z-score),[34],0.72
same,glycan array binding signal (z-score),[35],-0.297
same,glycan array binding signal (z-score),[36],-0.337
same,glycan array binding signal (z-score),[37],-0.373
same,glycan array binding signal (z-score),[38],-0.371
same,glycan array binding signal (z-score),[39],-0.374
same,glycan array binding signal (z-score),[40],-0.368
same,glycan array binding signal (z-score),[41],-0.486
same,glycan array binding signal (z-score),[42],2.12
same,glycan array binding signal (z-score),[43],-0.302
